# The supplement of paper PMC8728848
# Some of the results follow.
# B1: Langerin K313I (Homo sapiens), Q9UJ71 (protein)
# chain: STLNAQIPELKSDLEKASALNTKIRALQGSLENMSKLLKRQNDILQVVSQGWKYFKGNFYYFSLIPKTWYSAEQFCVSRNSHLTSVTSESEQEFLYKTAGGLIYWIGLTKAGMEGDWSWVDDTPFNKVQSARFWIPGEPNNAGNNEHCGNIKAPSLQAWNDAPCDITFLFICKRPYVPSEP
# Tests used:
# Experiment in all cases: glycan array binding signal (z-score within array); higher = stronger binding
# Conditions in all cases: glycan notation: IUPAC condensed, linker removed
# [1] = target: Fuc(a1-2)[GalNAc(a1-3)]Gal(b1-3)GlcNAc(b1-6)GalNAc
# In short: (§1)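 Columns mapping to the same glycan were averaged after glycan names were converted to IUPAC-condensed notation. The data come from 3228 arrays in the Consortium for Functional Glycomics database, limited to those with an available protein sequence. Binding is reported as a within-array Z-score averaged across arrays of one protein sequence and across linkers.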
# [2] = target: Fuc(a1-2)[GalNAc(a1-3)]Gal(b1-4)Glc
# In short: as §1
# [3] = target: Fuc(a1-2)[GalNAc(a1-3)]Gal(b1-4)GlcNAc
# In short: as §1
# [4] = target: Fuc(a1-2)[GalNAc(a1-3)]Gal(b1-4)GlcNAc(b1-2)Man
# In short: as §1
# [5] = target: Fuc(a1-2)[GalNAc(a1-3)]Gal(b1-4)GlcNAc(b1-2)Man(a1-3)[Fuc(a1-2)[GalNAc(a1-3)]Gal(b1-4)GlcNAc(b1-2)Man(a1-6)]Man(b1-4)GlcNAc(b1-4)GlcNAc
# In short: as §1
# [6] = target: Fuc(a1-2)[GalNAc(a1-3)]Gal(b1-4)GlcNAc(b1-2)Man(a1-3)[Fuc(a1-2)[GalNAc(a1-3)]Gal(b1-4)GlcNAc(b1-2)Man(a1-6)]Man(b1-4)GlcNAc(b1-4)[Fuc(a1-6)]GlcNAc
# In short: as §1
# [7] = target: Fuc(a1-2)[GalNAc(a1-3)]Gal(b1-4)GlcNAc(b1-3)Gal(b1-4)GlcNAc
# In short: as §1
# [8] = target: Fuc(a1-2)[GalNAc(a1-3)]Gal(b1-4)GlcNAc(b1-3)Gal(b1-4)GlcNAc(b1-3)Gal(b1-4)GlcNAc
# In short: as §1
# [9] = target: Fuc(a1-2)[GalNAc(a1-3)]Gal(b1-4)GlcNAc(b1-3)GalNAc
# In short: as §1
# [10] = target: Fuc(a1-2)[GalNAc(a1-3)]Gal(b1-4)GlcNAc(b1-3)[Fuc(a1-2)[GalNAc(a1-3)]Gal(b1-4)GlcNAc(b1-6)]GalNAc
# In short: as §1
# [11] = target: Fuc(a1-2)[GalNAc(a1-3)]Gal(b1-4)GlcNAc(b1-6)GalNAc
# In short: as §1
# [12] = target: Fuc(a1-2)[GalNAc(a1-3)]Gal(b1-4)[Fuc(a1-3)]GlcNAc
# In short: as §1
# [13] = target: Fuc(a1-2)[GalNAc(a1-3)]Gal(b1-4)[Fuc(a1-3)]GlcNAc(b1-3)GalNAc
# In short: as §1
# [14] = target: Fuc(a1-2)[GalNAc(a1-4)]Gal(b1-4)GlcNAc
# In short: as §1
# [15] = target: Fuc(a1-2)[GalNAc(b1-3)]Gal
# In short: as §1
# Fuc(a1-3)GlcNAc = target: Fuc(a1-3)GlcNAc
# In short: as §1
# [16] = target: Fuc(a1-3)[Gal(b1-4)]Glc6S
# In short: as §1
# [17] = target: Fuc(a1-3)[Gal(b1-4)]GlcNAc
# In short: as §1
# [18] = target: Fuc(a1-3)[Gal(b1-4)]GlcNAc(b1-2)Man
# In short: as §1
# [19] = target: Fuc(a1-3)[Gal(b1-4)]GlcNAc(b1-2)Man(a1-3)[Fuc(a1-3)[Gal(b1-4)]GlcNAc(b1-2)Man(a1-6)]Man(b1-4)GlcNAc(b1-4)GlcNAc
# In short: as §1
# [20] = target: Fuc(a1-3)[Gal(b1-4)]GlcNAc(b1-2)Man(a1-3)[Fuc(a1-3)[Gal(b1-4)]GlcNAc(b1-2)Man(a1-6)]Man(b1-4)GlcNAc(b1-4)[Fuc(a1-6)]GlcNAc
# In short: as §1
# [21] = target: Fuc(a1-3)[Gal(b1-4)]GlcNAc(b1-3)Gal(b1-3)[Fuc(a1-4)]GlcNAc
# In short: as §1
# [22] = target: Fuc(a1-3)[Gal(b1-4)]GlcNAc(b1-3)Gal(b1-4)[Fuc(a1-3)]GlcNAc
# In short: as §1
# [23] = target: Fuc(a1-3)[Gal(b1-4)]GlcNAc(b1-3)Gal(b1-4)[Fuc(a1-3)]GlcNAc(b1-3)Gal(b1-4)[Fuc(a1-3)]GlcNAc
# In short: as §1
# [24] = target: Fuc(a1-3)[Gal(b1-4)]GlcNAc(b1-3)GalNAc
# In short: as §1
# [25] = target: Fuc(a1-3)[Gal(b1-4)]GlcNAc(b1-6)GalNAc
# In short: as §1
# [26] = target: Fuc(a1-3)[Gal(b1-4)]GlcNAc(b1-6)[Gal(b1-3)GlcNAc(b1-3)]Gal(b1-4)Glc
# In short: as §1
# [27] = target: Fuc(a1-3)[Gal(b1-4)]GlcNAc6S
# In short: as §1
# [28] = target: Fuc(a1-3)[Gal3S(b1-4)]Glc
# In short: as §1
# [29] = target: Fuc(a1-3)[Gal3S(b1-4)]GlcNAc
# In short: as §1
# [30] = target: Fuc(a1-3)[Gal3S(b1-4)]GlcNAc6S
# In short: as §1
# [31] = target: Fuc(a1-3)[GalNAc(b1-4)]GlcNAc
# In short: as §1
# [32] = target: Fuc(a1-3)[GalNAc(b1-4)]GlcNAc6S
# In short: as §1
# Fuc(a1-4)GlcNAc = target: Fuc(a1-4)GlcNAc
# In short: as §1
# Fuc(b1-3)GlcNAc = target: Fuc(b1-3)GlcNAc
# In short: as §1
# Gal(a1-2)Gal = target: Gal(a1-2)Gal
# In short: as §1
# Gal(a1-3)Gal = target: Gal(a1-3)Gal
# In short: as §1
# Gal(a1-3)Gal(b1-3)GlcNAc = target: Gal(a1-3)Gal(b1-3)GlcNAc
# In short: as §1
# [33] = target: Gal(a1-3)Gal(b1-3)GlcNAc(b1-2)Man
# In short: as §1
# [34] = target: Gal(a1-3)Gal(b1-3)GlcNAc(b1-2)Man(a1-3)[Gal(a1-3)Gal(b1-3)GlcNAc(b1-2)Man(a1-6)]Man(b1-4)GlcNAc(b1-4)GlcNAc
# In short: as §1
# [35] = target: Gal(a1-3)Gal(b1-3)GlcNAc(b1-3)GalNAc
# In short: as §1
# [36] = target: Gal(a1-3)Gal(b1-3)GlcNAc(b1-6)GalNAc
# In short: as §1
# [37] = target: Gal(a1-3)Gal(b1-3)[Fuc(a1-4)]GlcNAc(b1-2)Man(a1-3)[Gal(a1-3)Gal(b1-3)[Fuc(a1-4)]GlcNAc(b1-2)Man(a1-6)]Man(b1-4)GlcNAc(b1-4)GlcNAc
# In short: as §1
# Gal(a1-3)Gal(b1-4)Glc = target: Gal(a1-3)Gal(b1-4)Glc
# In short: as §1
# Gal(a1-3)Gal(b1-4)GlcNAc = target: Gal(a1-3)Gal(b1-4)GlcNAc
# In short: as §1
binder,measurement,setting,value
B1,glycan array binding signal (z-score),[1],-0.207
same,glycan array binding signal (z-score),[2],-0.326
same,glycan array binding signal (z-score),[3],-0.393
same,glycan array binding signal (z-score),[4],-0.222
same,glycan array binding signal (z-score),[5],0.057
same,glycan array binding signal (z-score),[6],0.559
same,glycan array binding signal (z-score),[7],-0.287
same,glycan array binding signal (z-score),[8],0.16
same,glycan array binding signal (z-score),[9],-0.021
same,glycan array binding signal (z-score),[10],-0.146
same,glycan array binding signal (z-score),[11],-0.352
same,glycan array binding signal (z-score),[12],0.325
same,glycan array binding signal (z-score),[13],0.321
same,glycan array binding signal (z-score),[14],-0.352
same,glycan array binding signal (z-score),[15],-0.358
same,glycan array binding signal (z-score),Fuc(a1-3)GlcNAc,-0.279
same,glycan array binding signal (z-score),[16],0.4
same,glycan array binding signal (z-score),[17],-0.29
same,glycan array binding signal (z-score),[18],-0.001
same,glycan array binding signal (z-score),[19],-0.128
same,glycan array binding signal (z-score),[20],0.327
same,glycan array binding signal (z-score),[21],-0.256
same,glycan array binding signal (z-score),[22],0.123
same,glycan array binding signal (z-score),[23],-0.366
same,glycan array binding signal (z-score),[24],0.17
same,glycan array binding signal (z-score),[25],0.314
same,glycan array binding signal (z-score),[26],-0.328
same,glycan array binding signal (z-score),[27],0.132
same,glycan array binding signal (z-score),[28],0.101
same,glycan array binding signal (z-score),[29],-0.187
same,glycan array binding signal (z-score),[30],-0.028
same,glycan array binding signal (z-score),[31],-0.257
same,glycan array binding signal (z-score),[32],-0.256
same,glycan array binding signal (z-score),Fuc(a1-4)GlcNAc,-0.37
same,glycan array binding signal (z-score),Fuc(b1-3)GlcNAc,-0.307
same,glycan array binding signal (z-score),Gal(a1-2)Gal,-0.155
same,glycan array binding signal (z-score),Gal(a1-3)Gal,-0.236
same,glycan array binding signal (z-score),Gal(a1-3)Gal(b1-3)GlcNAc,-0.36
same,glycan array binding signal (z-score),[33],-0.333
same,glycan array binding signal (z-score),[34],0.188
same,glycan array binding signal (z-score),[35],-0.137
same,glycan array binding signal (z-score),[36],0.02
same,glycan array binding signal (z-score),[37],0.468
same,glycan array binding signal (z-score),Gal(a1-3)Gal(b1-4)Glc,-0.295
same,glycan array binding signal (z-score),Gal(a1-3)Gal(b1-4)GlcNAc,-0.394
